According to PubChem BioAssay AID1345083 (National Center for Advancing Translational Sciences (NCATS), 2018):
The campaign covered roughly 94,000 compounds. About 6,200 (6.6%) were called active. The inconclusive results got no clear call from the source; some entries with a clear call stand among them for comparison. The call rests on the fitted dose curve; in most records, active means well fitted inhibition curve with a large enough effect; inconclusive means small, poorly fitted or top-dose-only effect; inactive means flat fitted curve, though single readings scatter. Potencies of inconclusive entries are doubtful fits and often do not repeat.

assay: Cytotoxic Profiling in HEK 293 Cell Line of Diverse Libraries Using Quantitative High-Throughput Screening; conditions: HEK 293 viability, ATP luminescence (CellTiter-Glo), 48-72 h; series mostly up to 115 µM; further: nearly all actives have a fitted effect of over 60% in size
Outline: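 ATP-coupled CellTiter-Glo luminescence served as viability read-out, recorded 10 min after reagent addition at room temperature. HEK 293 cells, 250 cells/well, had been incubated with pintool-transferred compound for 48 or 72 hr at 37 degree Celsius.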
Potency means the concentration at half of the fitted maximal effect; tags describe the fitted curve by direction and shape.

Compound | Potency
CCOC(=O)c1ccc(NC(=O)Cn2c(N3CCOCC3)nc(CC)cc2=O)cc1 | inconclusive: 44.7 µM [inhibitor, partial curve, poor fit]
CNC(=O)[C@@H]1C[C@@H](n2cc(CNC(=O)Nc3ccc(F)cc3F)nn2)CN1 | inactive
O=C(c1ccc(C(F)(F)F)cc1)N1CCC(c2n[nH]c(=O)n2Cc2ccc(F)cc2)CC1 | inconclusive: 70.8 µM [inhibitor, single point]
O=C(COc1ccccc1)N1CCNc2cnc(Nc3cccc(F)c3)nc2C1 | inconclusive: 89.1 µM [inhibitor, partial curve]
Cc1ncc2c(c1CNC(=O)c1ccc(OC(F)F)cc1)CCNC2 | inactive
CCOc1ccc(C(=O)N2CCN(c3cc(-c4ccc(F)cc4)[nH]n3)CC2)cc1OCC | inconclusive: 50.1 µM [inhibitor, partial curve, poor fit]
O=C(NC1CCCc2c1[nH]c1ccc(F)cc21)c1ccncc1 (stereo not drawn) | inconclusive: 11.2 µM [inhibitor, full curve, poor fit]
COc1cccc(-c2ncc3c(n2)OCCN(c2ccccc2)C3=O)c1OC | inconclusive: 100 µM [inhibitor, partial curve, poor fit]
O=C(c1nc2cccnc2n(CCc2ccccc2)c1=O)N1CCOCC1 | inactive
COC(=O)c1ccc2nc(C[C@@H]3C[C@@H](C(C)C)[C@H](CNC(=O)C(C)C)C=C3C)[nH]c2c1 | inconclusive: 100 µM [inhibitor, partial curve]
CC(C)NC(=O)c1cc(-c2ccc(S(C)(=O)=O)cc2)nc2c1cnn2C | inactive
O=C(NC1CC1)c1ccccc1OCC1CCCN(Cc2ccc(Br)o2)C1 (stereo not drawn) | inconclusive: 56.2 µM [inhibitor, partial curve, poor fit]
COc1ccc(C[C@H](NC(=O)[C@@H]2C[C@H](NC(=O)Nc3cccc(SC)c3)CN2C(=O)CC(C)(C)C)C(N)=O)cc1 | inactive
Cc1ccsc1C(=O)Nc1cccc(-c2nnc3n2CCCC3)c1 | inconclusive: 89.1 µM [inhibitor, single point]
COc1ccc(NC(=O)N[C@H]2CO[C@H]3[C@@H]2OC[C@H]3OC(=O)Nc2ccc(Oc3ccccc3)cc2)cc1 | active: 17.8 µM
O=C(c1cccc(Cl)c1)N1CCc2nc(C3CC3)nc(-c3ccc(O)cc3)c2C1 | inconclusive: 50.1 µM [inhibitor, partial curve, poor fit]
O=C(NCc1cccc(Cl)c1)C1CCN(C(=O)c2ccc(-c3cccs3)cc2)CC1 | inconclusive: 22.4 µM [inhibitor, full curve, poor fit]
CCc1n[nH]c(CC2CCN(C(=O)c3ccnn3CC)CC2)n1 | inconclusive: 89.1 µM [inhibitor, single point]
Cc1ccc(F)cc1-c1cccc(CCOc2cnc3c(ccn3CC(=O)O)c2)c1 | inconclusive: 126 µM [inhibitor, single point]
O=C(NC1CCN(c2cc(-c3cccs3)[nH]n2)CC1)c1ccc(F)cc1F | inconclusive: 39.8 µM [inhibitor, partial curve, poor fit]
CCN1c2cc(C(=O)Nc3ccc4c(c3)OCCO4)ccc2C(=O)N2CCCC21 (stereo not drawn) | inconclusive: 31.6 µM [inhibitor, partial curve, poor fit]
NC(=O)c1cccc(-c2cc(-c3ccncc3)c3cncn3c2)c1 | inconclusive: 39.8 µM [inhibitor, full curve]

Compound | Potency
COc1ccc(OC)c(CNC(=O)Cc2cccn2-c2ccc(C)cc2)c1 | inconclusive: 50.1 µM [inhibitor, partial curve, poor fit]
CNS(=O)(=O)c1ccc(CN2CCC3(CCNCC3)C2)cc1 | inactive
CN1CCC2(Cc3ccccc3CN(C(=O)CCN)C2)C1 (stereo not drawn) | inconclusive: 126 µM [inhibitor, single point]
Cc1cc(C)c(CNC(=O)c2cc(-c3ccccc3)cc3c2OCCN3C(C)C)c(=O)[nH]1 | active: 31.6 µM
CC(C)(C)C(=O)Nc1nc2c(s1)C[C@@H]1[C@](C)(CO)[C@H](O)CC[C@@]1(C)[C@@H]2CC(=O)Nc1cccc(O)c1 | inactive
Cc1ccc(CN(C)C(=O)c2ccccc2OC2CCN(Cc3ccccn3)CC2)o1 | inactive
COC(=O)C1=C(C)NC(=O)NC1c1ccc(N(C)C)cc1 (stereo not drawn) | inactive
COc1ccccc1NC(=O)N1CC[C@H](c2nnc(-c3ccc(C)cc3)o2)C1 | inconclusive: 126 µM [inhibitor, single point]
O=C(NCCc1ccccc1)C1CCCN1C(=O)c1cccc(-c2cccnc2)c1 (stereo not drawn) | inactive
CCc1noc(-c2cccn3c(CNC(=O)C(CC)c4ccccc4)nnc23)n1 (stereo not drawn) | inconclusive: 89.1 µM [inhibitor, single point]
COc1ccccc1-c1cccc(C(=O)N2CCC[C@H]2C(=O)N2CCOCC2)c1 | inactive
Cc1cc(OC2CN(C(=O)c3ccccn3)C2)ccc1F | active: 79.4 µM
O=C(CC1CCCCC1)N1CC(CO)C2(CCNCC2)C1 (stereo not drawn) | inactive
Cc1oc(C(O)c2cccc(O)c2)nc1C(=O)Nc1ccc2[nH]c(=O)oc2c1 (stereo not drawn) | inconclusive: 100 µM [inhibitor, partial curve]
CCOC(=O)CN1C(=O)CN(C(=O)COC(C)=O)CCC(OC)c2ccccc21 (stereo not drawn) | inactive
CN1CCN(C(=O)c2cc(-c3ccc(Cl)cc3Cl)c3nncn3n2)CC1 | inactive
CCc1nc2c(c(-c3ccc(Cl)cc3)n1)CN(Cc1cccc3ccccc13)CC2 | active: 79.4 µM
COc1ccc(OCc2nc(C)c(CCO)c(=O)n2CC(=O)Nc2ccc(C)cc2C)cc1 | inconclusive: 89.1 µM [inhibitor, single point]
CCc1ccc(CN2CCC3CC(=O)NCCC3C2)cc1 (stereo not drawn) | inactive
COc1ccc(-c2noc(CN3CCCC(C(=O)c4cccnc4)C3)n2)c(OC)c1OC (stereo not drawn) | inactive
OC1(c2ccc(F)cc2)CCN(c2nccc(-c3ccccn3)n2)CC1 | inconclusive: 89.1 µM [inhibitor, partial curve, poor fit]
